Out of some 48,000 compounds screened, about 120 (0.25%) were called active. Inconclusive means that the source gave no clear call. Such entries were picked first, then a sample of the others. Calls follow the shape of the dose curve; as a rule, active = well fitted activation curve with a large enough effect; inconclusive = small, poorly fitted or top-dose-only effect, or another doubt; inactive = no such curve, though single readings can be large or run the other way. Potencies of inconclusive entries are doubtful fits and often do not repeat.
experiment: Primary qHTS for Identification of Small Molecule Activators of Huntingtin-Antisense Promoter Activity; details: HEK293 HTT-AS promoter firefly luciferase reporter, 24 h; activity change, positive = activation: at 57.5 µM (top of the series), percent change from vehicle, -100% = no light; also: nearly all actives have a fitted effect of over 55% in size
Method in brief: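 HEK293 Fluc reporter, 2,500 cells/well, 24 h pre-culture; cpds up to 57.5 uM final, 24 h 37 degrees C; Dual-Glo, 10 min RT; normalized vehicle = 0%, zero RLU = -100%.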
Potency is read from the fitted curve at half-maximal effect; tags tell the direction and shape of the fitted curve.

Compound | Potency | activity change, positive = activation
Cc1ccc(CNc2ccc(-c3nc(-c4ccccn4)no3)cc2[N+](=O)[O-])cc1 | inconclusive: 25.1 µM [activator, partial curve, poor fit] | –
O=C(C=CC#Cc1cccc(NS(=O)(=O)c2ccccc2)c1)NO | – | inactive: -17.2%
CC(=O)O[C@H]1CC[C@@]2(C)C(=CC[C@@H]3[C@@H]2CC[C@]2(C)C(C(C)=O)=CC[C@@H]32)C1 | – | inactive: -5.28%
CC(C)CN(CCCNC(=O)c1cn(C)c2ccc(S(=O)(=O)N(C)C3CCCCC3)cc2c1=O)CC(C)C | inconclusive: 2.82 µM [activator, partial curve, poor fit] | –
CCc1ccc2c(c1)-c1ccccc1S(=O)(=O)N2CC(=O)N1CCC(C)CC1 | inconclusive: 11.2 µM [activator, partial curve, poor fit] | –
COc1cc2ccccc2cc1C(=O)Nc1ccc2oc(-c3ccccc3)nc2c1 | inconclusive: 39.8 µM [activator, single point] | –
CC[C@@H]1C(=O)N(C)c2cnc(Nc3ccc(C(=O)NC4CCC(N5CCN(CC6CC6)CC5)CC4)cc3OC)nc2N1C(C)C (stereo not given in full) | inconclusive: 34.3 µM [activator, single point] | –
Cc1ccc(C)c(CNC(=O)C2CCN(c3nc4ccccc4nc3C(F)(F)F)CC2)c1 | – | inconclusive: 28.7% [activator]
COc1ccc(CN(C(=O)c2cc3ccccc3oc2=O)C2CCS(=O)(=O)C2)cc1 (stereo not given) | inconclusive: 11.2 µM [activator, partial curve] | –
COc1ccc(-c2nc3c4cnn(-c5ccccc5F)c4ncn3n2)cc1 | inconclusive: 1.12 µM [activator, partial curve, poor fit] | –
CCOC(=O)c1sc2ccccc2c1S(=O)(=O)N1CCN(c2cccc(OC)c2)CC1 | – | inactive: -43.8%
CCOC(=O)c1sc2ccccc2c1S(=O)(=O)N1CCN(c2cccc(C)c2C)CC1 | – | inactive: -26.4%
Cc1noc(-c2ccc(N3CCC(C)CC3)c([N+](=O)[O-])c2)n1 | inconclusive: 1.58 µM [activator, full curve, poor fit] | –
CCNC(=O)c1ccc2c(c1)sc1nc(-c3cccc(OC)c3)cn12 | inconclusive: 1.12 µM [activator, partial curve, poor fit] | –
CNC(=O)c1ccc2cc(C3(O)CCn4cncc43)ccc2c1 (stereo not given) | – | inactive: -6.56%
COc1ccc(NC(=O)c2ncn(-c3ccccc3)n2)cc1Cl | inconclusive: 14.1 µM [activator, partial curve] | –
CC(=O)Nc1c(C)nn(-c2ccccc2)c1N1CCC(C(=O)Nc2cc(F)ccc2F)CC1 | inconclusive: 31.6 µM [activator, partial curve] | –
Cc1ccc2nc(-c3cccc(NC(=O)CSc4ccc(Cl)cc4)c3)oc2c1 | inconclusive: 1.12 µM [activator, partial curve, poor fit] | –
COc1ccc(S(=O)(=O)Nc2cc(-c3cn4ccc(C)cc4n3)ccc2C)cc1OC | inconclusive: 2.82 µM [activator, partial curve, poor fit] | –
Cc1ccc(-c2noc(-c3cccnc3NCc3ccco3)n2)cc1 | inconclusive: 15.8 µM [activator, partial curve, poor fit] | –

Compound | Potency | activity change, positive = activation
COCCc1nn2c(=O)cc(COC(=O)c3ccccc3C)nc2s1 | inconclusive: 14.1 µM [activator, single point] | –
O=C(Nc1cc(-c2ccc(Cl)cc2)no1)c1ccc(F)cc1 | inconclusive: 10 µM [activator, partial curve, poor fit] | –
NC(=O)c1ccccc1NC(=O)CN1c2ccccc2S(=O)(=O)c2ccccc21 | – | inactive: -1.8%
Cc1ccc(C)c(Oc2nc3c(c(=O)n(C)c(=O)n3C)n2Cc2ccccc2)c1 | – | inconclusive: 15.2% [activator]
Cc1ccc(CN2CCSc3ccc(C(=O)Nc4ccc(C)cc4)cc32)cc1 | inconclusive: 1.26 µM [activator, partial curve, poor fit] | –
COc1cccc(-n2nnc(-c3nc(-c4cccs4)no3)c2N)c1 | inconclusive: 1.41 µM [activator, full curve, poor fit] | –
COc1cc(OC)cc(C(=O)Nc2ccc3nc4n(c(=O)c3c2)CCCCC4)c1 | inconclusive: 2 µM [activator, full curve, poor fit] | –
O=C(c1ccc(F)cc1)N1CCC[C@H](c2nc(-c3ccc(F)cc3)no2)C1 | – | inactive: -5.38%
CNC(=O)c1cnc2sc(N3CCCCCC3)nn2c1=O | inconclusive: 14.1 µM [activator, partial curve] | –
Cc1ccc(S(=O)(=O)c2nc(-c3ccccc3F)oc2NCc2ccccc2)cc1 | – | inconclusive: 37.4% [activator]
Cc1c2oc3c(C)ccc(C(=O)N[C@@H]4C(=O)N[C@H](C(C)C)C(=O)N5CCC[C@H]5C(=O)N(C)CC(=O)N(C)[C@@H](C(C)C)C(=O)O[C@@H]4C)c3nc-2c(C(=O)N[C@@H]2C(=O)N[C@H](C(C)C)C(=O)N3CCC[C@H]3C(=O)N(C)CC(=O)N(C)[C@@H](C(C)C)C(=O)O[C@@H]2C)c(N)c1=O | – | inconclusive: -48% [activator]
Clc1ccc(-c2noc(-c3cccnc3NCc3ccco3)n2)cc1 | inconclusive: 22.4 µM [activator, single point] | –
COc1cccc(-c2noc(-c3cc(C(C)C)[nH]n3)n2)c1OC | inconclusive: 39.8 µM [activator, single point] | –
Cc1nc(-n2nc(C)c(CCC(C)C)c2C)sc1C(=O)Nc1ccc(Cl)cc1 | inconclusive: 15.8 µM [activator, partial curve] | –
COCC(C)Nc1ncnc2c1cnn2-c1ccc(C)c(C)c1 (stereo not given) | inconclusive: 0.178 µM [activator, full curve, poor fit] | –
Cc1cccc(NC(=O)c2oc3ccccc3c2NC(=O)Cc2coc3ccc(C(C)C)cc23)c1 | inconclusive: 11.2 µM [activator, partial curve, poor fit] | –
CCS(=O)(=O)c1ccccc1C(=O)Nc1ccc(-c2nc3ccccc3s2)cc1 | inconclusive: 2.82 µM [activator, partial curve, poor fit] | –
COc1cc(C)c(C=CC(C)=CC=CC(C)=CC(=O)O)c(C)c1C | – | inactive: -0.0761%
CC(=O)c1ccc(NC(=O)CSc2nnc(N)s2)cc1 | inconclusive: 15.8 µM [activator, partial curve, poor fit] | –
Cc1ccc(Nc2c(-c3ccc(C)o3)nc3cccc(C)n23)cc1 | inconclusive: 1.41 µM [activator, full curve, poor fit] | –

Compound | Potency | activity change, positive = activation
CCc1ccc(C=C2SC(=S)NC2=O)cc1 | inconclusive: 6.85 µM [activator, partial curve, poor fit] | –
Cc1ccc(-c2noc(-c3nnn(-c4ccc(Br)cc4F)c3C)n2)cc1 | inconclusive: 5.01 µM [activator, single point] | –
COc1ccc(-c2cn3nc(N4CCCC(C(=O)NCc5ccc(Cl)cc5)C4)sc3n2)cc1 (stereo not given) | inconclusive: 11.2 µM [activator, partial curve] | –
Cn1c(=O)oc2cc(S(=O)(=O)CCC(=O)N3CCN(c4cccc(Cl)c4)CC3)ccc21 | inconclusive: 7.08 µM [activator, single point] | –
Cc1ccn2c(Nc3ccc4c(c3)OCCO4)c(-c3ccc(C)o3)nc2c1 | inconclusive: 12.6 µM [activator, partial curve, poor fit] | –
Cc1ccc(C)c(NC(=O)n2ncc3cc(Cl)ccc32)c1 | inconclusive: 31.6 µM [activator, partial curve, poor fit] | –
CCS(=O)(=O)Nc1ccc(-c2cn3ccsc3n2)cc1 | inconclusive: 8.91 µM [activator, partial curve, poor fit] | –
COc1ccccc1NC(=O)c1ccc(COc2ccc(C)c(C)c2)o1 | inconclusive: 3.55 µM [activator, single point] | –
O=C(Cn1ncn2cccc2c1=O)NCc1cccc(Br)c1 | inconclusive: 8.91 µM [activator, partial curve] | –
COc1ccccc1C(=O)NCC(c1ccc(N(C)C)cc1)N1CCc2ccccc21 (stereo not given) | – | inactive: -9.72%
CCc1ccc(NC(=O)Cn2nc(C(F)(F)F)c3c2CCCC3)cc1 | – | inactive: -15.8%
CC1CCC(NC(=O)c2ccc3c(c2)N(Cc2ccccc2F)C(=O)c2ccccc2S3(=O)=O)CC1 (stereo not given) | inconclusive: 15.8 µM [activator, partial curve, poor fit] | –
Clc1ccc2nc(-c3ccc(N4CCOCC4)cc3)c(Nc3ccccc3)n2c1 | inconclusive: 12.6 µM [activator, partial curve] | –
COCCCn1c(=N)c(C(=O)NC2CCCC2)cc2c(=O)n3cccc(C)c3nc21 | – | inactive: -16.3%
COc1ccc(CNC(=O)c2ccc3c(c2)nc2n3CCCCC2)cc1 | inconclusive: 3.16 µM [activator, full curve, poor fit] | –
CCOC(=O)N1CCc2c(sc(NCc3ccc(N(CC)CC)cc3)c2C(=O)Nc2cc(OC)ccc2OC)C1 | – | inactive: -38.5%
Cc1cccc(NC(=O)/C(C#N)=C/c2ccco2)c1 | inconclusive: 2 µM [activator, full curve, poor fit] | –
CCCNC(=O)Cn1nc(-c2ccc(OC)cc2)c2cnc3ccc(F)cc3c21 | inconclusive: 39.8 µM [activator, single point] | –
CCOc1ccc(C(=O)Nc2ccc3nc(Nc4cccc(C(F)(F)F)c4)cc(C)c3c2)cc1OCC | – | inactive: -3.86%
COc1cccc(NC(=O)CCNC(=O)Cn2cnc3ccccc3c2=O)c1 | inconclusive: 1.41 µM [activator, partial curve, poor fit] | –

— PubChem BioAssay AID1508624 (National Center for Advancing Translational Sciences (NCATS), 2021)
